Single values are uncertain, as repeats are few or missing.
Assays:
CHO-K1 [1] = test: relative survival (nuclei to bead ratio vs DMSO control) (% of vehicle control); higher = more surviving cells
CHO-K1 [2] = test: hypodiploid nuclei frequency (% of nucleated events); higher = more hypodiploid events (aneugenic)
CHO-K1 [3] = test: micronucleus frequency (% of nucleated events); higher = more micronuclei (genotoxic)
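For hypodiploid nuclei frequency (% of nucleated events) in this document: hypodiploid nuclei gated on a flow cytometer with 488 nm excitation after SYTOX Green staining, cultures at 37 °C, positive controls vinblastine without S9 and cyclophosphamide with S9.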
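For micronucleus frequency (% of nucleated events) in this document: cells lysed with nuclei stained by SYTOX Green, then micronucleus-gated events counted against nucleated events by flow cytometry with 488 nm excitation.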
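For relative survival (nuclei to bead ratio vs DMSO control) in this document: Lysed-cell nuclei stained with SYTOX Green and counted against counting beads by flow cytometry at 488 nm excitation, with vinblastine (no S9) and cyclophosphamide (plus S9) as positive controls.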

CCOC(N)=O [Urethane]
Details	hypodiploid nuclei frequency, CHO-K1 [2] [%]	micronucleus frequency, CHO-K1 [3] [%]	relative survival, CHO-K1 [1]
concentration: 4.53 (µM), S9 metabolic activation: with S9, exposure time: 3-4 hours	0.22	1.64	89.4
concentration: 4.53 (µM), S9 metabolic activation: without S9, exposure time: 24 hours	4.72	1.22	98.5
concentration: 5.66 (µM), S9 metabolic activation: with S9, exposure time: 3-4 hours	0.2	1.66	93.6
concentration: 5.66 (µM), S9 metabolic activation: without S9, exposure time: 24 hours	1.84	1.2	95.2
concentration: 7.07 (µM), S9 metabolic activation: with S9, exposure time: 3-4 hours	0.4	1.54	104
concentration: 7.07 (µM), S9 metabolic activation: without S9, exposure time: 24 hours	2.6	1.48	93.6
concentration: 8.84 (µM), S9 metabolic activation: with S9, exposure time: 3-4 hours	0.3	1.48	104
concentration: 8.84 (µM), S9 metabolic activation: without S9, exposure time: 24 hours	0.7	1.14	111
concentration: 11.1 (µM), S9 metabolic activation: with S9, exposure time: 3-4 hours	0.2	1.9	105
concentration: 11.1 (µM), S9 metabolic activation: without S9, exposure time: 24 hours	0.68	1.48	113
concentration: 13.8 (µM), S9 metabolic activation: with S9, exposure time: 3-4 hours	0.24	1.84	110
concentration: 13.8 (µM), S9 metabolic activation: without S9, exposure time: 24 hours	0.62	1.12	107
concentration: 17.3 (µM), S9 metabolic activation: with S9, exposure time: 3-4 hours	0.3	1.78	107
concentration: 17.3 (µM), S9 metabolic activation: without S9, exposure time: 24 hours	0.72	0.94	101
concentration: 21.6 (µM), S9 metabolic activation: with S9, exposure time: 3-4 hours	0.1	0.8	107
concentration: 21.6 (µM), S9 metabolic activation: without S9, exposure time: 24 hours	0.62	1.3	94.1
concentration: 27 (µM), S9 metabolic activation: with S9, exposure time: 3-4 hours	0.12	0.92	88.7
concentration: 27 (µM), S9 metabolic activation: without S9, exposure time: 24 hours	0.76	1.28	95.7
concentration: 33.7 (µM), S9 metabolic activation: with S9, exposure time: 3-4 hours	0.18	1.14	84.1
concentration: 33.7 (µM), S9 metabolic activation: without S9, exposure time: 24 hours	0.56	1.1	86.4
concentration: 42.2 (µM), S9 metabolic activation: with S9, exposure time: 3-4 hours	0.22	1.28	84.9
concentration: 42.2 (µM), S9 metabolic activation: without S9, exposure time: 24 hours	0.56	1.22	94.7
concentration: 52.7 (µM), S9 metabolic activation: with S9, exposure time: 3-4 hours	0.26	1.06	91.8
concentration: 52.7 (µM), S9 metabolic activation: without S9, exposure time: 24 hours	0.52	0.96	72.4
concentration: 65.9 (µM), S9 metabolic activation: with S9, exposure time: 3-4 hours	0.16	1	81.8
concentration: 65.9 (µM), S9 metabolic activation: without S9, exposure time: 24 hours	0.74	1.2	84.7
concentration: 82.3 (µM), S9 metabolic activation: with S9, exposure time: 3-4 hours	0.22	1.18	84.1
concentration: 82.3 (µM), S9 metabolic activation: without S9, exposure time: 24 hours	0.44	1.26	95.2
concentration: 103 (µM), S9 metabolic activation: with S9, exposure time: 3-4 hours	0.14	1.14	81.8
concentration: 103 (µM), S9 metabolic activation: without S9, exposure time: 24 hours	0.5	1.46	111
concentration: 129 (µM), S9 metabolic activation: with S9, exposure time: 3-4 hours	0.18	0.94	98.8
concentration: 129 (µM), S9 metabolic activation: without S9, exposure time: 24 hours	0.8	1.52	98.5
concentration: 161 (µM), S9 metabolic activation: with S9, exposure time: 3-4 hours	0.2	1.02	79.5
concentration: 161 (µM), S9 metabolic activation: without S9, exposure time: 24 hours	0.92	1.52	93.6
concentration: 201 (µM), S9 metabolic activation: with S9, exposure time: 3-4 hours	0.18	1.16	86.2
concentration: 201 (µM), S9 metabolic activation: without S9, exposure time: 24 hours	0.82	1.8	89.2
